According to PubChem BioAssay AID624417 (National Center for Advancing Translational Sciences (NCATS), 2012):
Hit rate of the full screen: of about 410,000 compounds, about 6,400 (1.6%) were called active. Inconclusive means that the source gave no clear call. Such entries were picked first, then a sample of the others. Calls come from the whole dose curve; as a rule, active = well fitted inhibition curve with a large enough effect; inconclusive = small, poorly fitted or top-dose-only effect; inactive = no such curve, though single readings can be large or run the other way. Potencies of inconclusive entries are left out as doubtful fits.
% is set by controls: 0 for no effect and ±100 for the full control effect; potency is the fitted concentration of half-maximal effect; tags give direction and shape of the fitted curve.
Note: nearly all actives have a fitted effect of over 55% in size.

These molecules were tested against Glucagon-like peptide 1 receptor (Homo sapiens) (UniProt P43220) (assay: qHTS of GLP-1 Receptor Inverse Agonists (Inhibition Mode)). Conditions: HEK293 GLP-1R CRE-luciferase, luminescence, 24 h, GLP-1R form is constitutively active; activity change, negative = inhibition: at 38.3 µM (top of the series) unless noted.
Sequence of UniProt P43220 (P43220 whole entry, looked up): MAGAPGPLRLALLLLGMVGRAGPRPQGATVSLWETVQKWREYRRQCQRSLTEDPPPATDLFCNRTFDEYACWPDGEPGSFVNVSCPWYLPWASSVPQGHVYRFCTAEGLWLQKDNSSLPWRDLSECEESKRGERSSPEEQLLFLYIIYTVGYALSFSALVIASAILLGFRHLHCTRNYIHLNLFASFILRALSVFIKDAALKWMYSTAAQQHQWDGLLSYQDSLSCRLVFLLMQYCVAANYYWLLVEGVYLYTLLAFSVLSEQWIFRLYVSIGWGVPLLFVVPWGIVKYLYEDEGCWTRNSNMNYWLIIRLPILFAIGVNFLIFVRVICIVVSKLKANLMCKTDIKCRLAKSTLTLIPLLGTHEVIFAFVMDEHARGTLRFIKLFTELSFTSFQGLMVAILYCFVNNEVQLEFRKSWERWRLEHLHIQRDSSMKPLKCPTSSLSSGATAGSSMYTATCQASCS
Summary of the method: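 Constitutively active GLP-1R drives a cAMP-responsive luciferase in stably transfected HEK293 cells; test compounds are added after overnight (12 h) attachment and left 24 hr, and signal loss in luminescence marks inhibition.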
With `CC(C)(C)c1ccc(C(=O)Nc2ccc3c(c2)CCCN3C(=O)c2cccs2)cc1` the Potency was inconclusive [inhibitor, full curve, poor fit].
For `C#CCNC(=O)C[C@@H]1C[C@@]2(C(=O)OC)CC(C)(C)CC=C2N(CCCCCCCC)C1=O`, the Potency was inconclusive [inhibitor, single point].
For `CCOc1ccccc1NC(=O)c1ccc2c(Cl)c3c(nc2c1)CCC3`, the Potency was “inactive”.
In the case of `COc1ccc(C(=O)CCN2CCN(c3ccccc3OC)CC2)cc1`, the Potency is reported as “inactive”.
In the case of `COc1ccc(S(=O)(=O)N2CCCCC2)cc1NS(=O)(=O)c1cc(Cl)ccc1Cl`, the Potency is reported as inconclusive [inhibitor, partial curve].
In the case of `CC1=CC(=C2C(=O)c3ccccc3C2=O)C=C(C)N1C`, the Potency is reported as “inactive”.
In the case of `Cc1cccc(N/N=C/c2ccncc2)c1`, the activity change, negative = inhibition is reported as inconclusive: -86.6% [inhibitor].
`O=[N+]([O-])c1ccccc1C=NNC(=S)NN=Cc1ccccc1[N+](=O)[O-]` was tested, and the Potency was inconclusive [inhibitor, single point].
In the case of `CC(C)(C)n1nnnc1C(c1cc2ccccc2o1)N(CCC#N)Cc1ccccc1` (centres undefined), the Potency is reported as inconclusive [inhibitor, single point].
In the case of `CCOc1ccccc1CNc1ccc2cc(S(=O)(=O)N3CCC(C)CC3)ccc2n1`, the Potency is reported as inconclusive [inhibitor, partial curve, poor fit].
For `Cc1cccc(Nc2nnc(SCC(=O)c3ccc(Br)s3)s2)c1C`, the Potency was inconclusive [inhibitor, partial curve, poor fit].
For `O=C1/C(=C\c2ccc(O)c(O)c2)C(c2ccccc2)=NN1c1ccccc1`, the Potency was inconclusive [inhibitor, partial curve, poor fit].
With `CCOC(=O)CC(NC(=O)Cn1nnc(-c2ccccc2)n1)c1ccc(OC)cc1` (centres undefined) the Potency was inconclusive [inhibitor, single point].
In the case of `CN1/C(=C/C(=S)NC(=O)C2(C)CC2(Cl)Cl)C(C)(C)c2ccccc21` (centres undefined), the Potency is reported as inconclusive [inhibitor, partial curve, poor fit].
In the case of `CCC1CCCCN1C(=O)CCCc1ccccc1` (centres undefined), the Potency is reported as inconclusive [inhibitor, single point].
In the case of `CC(C)(C)C(=O)Cn1c(=O)n(-c2ccc(F)cc2F)c(=O)c2sccc21`, the Potency is reported as inconclusive [inhibitor, partial curve, poor fit].
`CC1(c2nc3ccccc3[nH]2)c2ccccc2C(=O)N1Cc1ccccc1` (centres undefined) was tested, and the Potency was “inactive”.
For `CCOc1ccccc1Nc1sc(C(=O)c2ccccc2)c(N)c1C(=O)Nc1ccccc1`, the Potency was inconclusive [inhibitor, partial curve, poor fit].
With `Cc1ccc(C)c(Cn2nnc3c(=O)[nH]c(C(=O)Nc4ccc(F)cc4)nc32)c1` the Potency was inconclusive [inhibitor, full curve, poor fit].
In the case of `CCc1ccc(NC(=O)Cn2c(=O)n(CCCCC(=O)NCc3ccc4c(c3)OCO4)c(=O)c3ccccc32)cc1`, the Potency is reported as “inactive”.
For `CCCCNc1c(-c2ccc(OC)c(SC3CCCCC3)c2)nc2cc(C)ccn12`, the Potency was inconclusive [inhibitor, partial curve, poor fit].
With `CC(=O)Nc1cc(-c2ccccc2)ccc1O` the Potency was “inactive”.
For `CC(Oc1cccc(Cl)c1)C(=O)Nc1cc(S(=O)(=O)N2CCCCC2)ccc1N1CCOCC1` (centres undefined), the Potency was inconclusive [inhibitor, single point].
In the case of `COc1cc(OC)cc(-c2c(C#Cc3ccsc3)c3cc(-c4ccc5cc[nH]c5c4)ccc3n2C)c1`, the Potency is reported as inconclusive [inhibitor, full curve, poor fit].
For `CCOc1ccc(CN2CCN(C(=O)c3cccc4ccccc34)CC2)cc1`, the Potency was inconclusive [inhibitor, partial curve].
In the case of `CC1CCN(C(=S)NC(=O)c2ccccc2Br)CC1`, the Potency is reported as inconclusive [inhibitor, single point].
For `O=C(CN(C(=O)Cn1nnc(-c2ccc(F)cc2)n1)c1cnc2ccccc2c1)NCC1CCCO1` (centres undefined), the Potency was inconclusive [inhibitor, full curve, poor fit].
`O=C1CN(C(=O)c2cccc(Br)c2)c2ccccc2N1` was tested, and the Potency was inconclusive [inhibitor, partial curve, poor fit].
`Cc1ccc(N(CC(=O)NCCSc2ccccn2)S(=O)(=O)c2ccc(F)cc2)cc1` was tested, and the Potency was inconclusive [inhibitor, single point].
`COc1ccc(OC)c(NC(=S)NCCSc2ccc(C)cc2)c1` was tested, and the Potency was inconclusive [inhibitor, partial curve, poor fit].
For `Cc1ccc(S(=O)(=O)NCC(c2ccco2)S(=O)(=O)c2ccccc2)cc1` (centres undefined), the Potency was inconclusive [inhibitor, single point].
For `CCOc1ccccc1C(=O)NCC(=O)NCCSc1ccc(Br)cc1`, the Potency was inconclusive [inhibitor, partial curve].
`CCOc1ccc(NS(=O)(=O)c2ccc3c(c2)n(C)c(=O)n3C)cc1` was tested, and the Potency was “inactive”.
`CCc1ccc(NC(=O)C(=O)NCC(c2cccnc2)N2CCN(c3ccc(F)cc3)CC2)cc1` (centres undefined) was tested, and the Potency was “inactive”.
In the case of `COc1cccc(NC(=O)Cc2ccc3ccccc3c2)c1`, the Potency is reported as inconclusive [inhibitor, single point].
In the case of `COc1ccc(-c2c(-c3ccc(OC)c(C)c3O)n[nH]c2C)cc1`, the Potency is reported as inconclusive [inhibitor, partial curve, poor fit].
With `CCc1cc(C(=O)N2CCN(S(=O)(=O)c3cc(C)ccc3C)CC2)sc1C` the Potency was inconclusive [inhibitor, single point].
With `CC(=O)c1cccc(NC(=O)c2nc(-c3ccccc3)n(-c3cccc(Cl)c3)n2)c1` the Potency was inconclusive [inhibitor, single point].
In the case of `Cc1ccc(NC(=O)c2nc(S(C)(=O)=O)ncc2N(Cc2ccco2)Cc2cccs2)c(C)c1`, the Potency is reported as inconclusive [inhibitor, partial curve, poor fit].
